# Over roughly 33,000 sequences, “E-score (-0.5 to 0.5)” has its median near -0.012; the highest 2% begin near 0.27. Some of the results follow.
# Target: T1, Vhr1 (UniProt P40522)
# T1 sequence: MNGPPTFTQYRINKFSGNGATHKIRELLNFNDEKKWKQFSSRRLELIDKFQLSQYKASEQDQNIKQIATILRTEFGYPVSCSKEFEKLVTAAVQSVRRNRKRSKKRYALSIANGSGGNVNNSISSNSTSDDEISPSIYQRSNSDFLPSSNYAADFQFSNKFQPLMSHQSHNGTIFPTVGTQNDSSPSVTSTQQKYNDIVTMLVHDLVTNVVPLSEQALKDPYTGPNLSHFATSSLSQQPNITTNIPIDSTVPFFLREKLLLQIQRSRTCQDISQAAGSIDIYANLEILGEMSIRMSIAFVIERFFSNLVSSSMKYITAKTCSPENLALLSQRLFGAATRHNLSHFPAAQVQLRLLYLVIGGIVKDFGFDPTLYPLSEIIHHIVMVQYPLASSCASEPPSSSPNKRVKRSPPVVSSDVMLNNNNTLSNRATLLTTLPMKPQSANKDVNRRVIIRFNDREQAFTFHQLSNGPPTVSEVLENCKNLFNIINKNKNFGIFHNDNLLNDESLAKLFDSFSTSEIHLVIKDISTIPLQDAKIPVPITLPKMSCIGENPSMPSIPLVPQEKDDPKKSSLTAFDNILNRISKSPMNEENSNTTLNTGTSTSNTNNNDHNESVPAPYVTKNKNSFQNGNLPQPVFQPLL
# Assay: PBM E-score (8-mer binding enrichment) (E-score (-0.5 to 0.5)); higher = stronger / more preferred TF binding; most listed sequences are background and not binding sites
# Conditions: protein concentration: 200 nM; construct: GST-full length
# Summary of the method: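 Yeast transcription factors, full-length or as DNA-binding domains, were expressed with a GST tag using PURExpress in vitro transcription/translation. At about 100-200 nM they were applied to universal all-10-mer Agilent arrays, double-stranded by primer extension on fresh or once-stripped slides. Fluorescent anti-GST detected bound protein, and masliner normalised the scans. E-scores for ungapped eight-base words, pooled with reverse complements, came from the Universal PBM Analysis Suite.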
row,Sequence,PBM E-score
1,ATACGGAG,0.127
2,AATAGCAA,-0.117
3,GAATCGCA,0.00272
4,CGTAGCGC,-0.129
5,GCTTCTTA,-0.116
6,ATCGTTAG,-0.0396
7,AATCGAGA,-0.00051
8,AACCTGCT,0.0419
9,CCGCGCTC,0.0972
10,CATTTACG,-0.0814
11,GGTCTTTA,-0.0868
12,ATGCGAAC,0.119
13,TGAAGCAA,-0.215
14,CCTGACTA,0.391
15,ATAATCTC,0.0508
16,ATGCCTAC,-0.15
17,GTTTGTCA,-0.0383
18,AGAATTAG,-0.166
19,CGAAGTTC,-0.16
20,AACCCGTG,-0.107
21,AACTTGCC,-0.177
22,TCTAAGCA,0.0117
23,AATAGTGG,-0.0759
24,AAAAATCT,-0.231
25,GCAACCGA,0.0373

row,Sequence,PBM E-score
1,GGATGTGA,0.0365
2,CGGTCGGC,-0.107
3,AGAGTTAA,-0.0988
4,GAACCCGC,-0.139
5,AACGAGGA,-0.00876
6,GGAATTCC,-0.279
7,AGAGTCGG,0.329
8,TCTACGCA,-0.018
9,GAACTCGA,-0.0101
10,CACCAATG,0.147
11,AGAAAAGA,-0.315
12,CAGTTTAC,-0.0698
13,AGTTTAGC,-0.127
14,AATGCACG,-0.0807
15,GACCTCGC,-0.0089
16,GAAGACAC,0.0155
17,CCGATGGA,-0.036
18,CGTTTAAA,-0.219
19,AAGTCACG,0.336
20,ATAATCCC,0.0633
21,CAAAATCC,0.096
22,ATAACCAA,0.0388
23,AGCCACAA,0.0444
24,CAATCTGC,-0.0194
25,GATGAGTA,0.382

row,Sequence,PBM E-score
1,CAGCGTCC,0.0164
2,CAAACACC,-0.0718
3,ATTCCGGC,0.0156
4,AACGCTCA,-0.0577
5,CCACTTAG,-0.0134
6,CCTGCCCC,0.00204
7,CTATTATC,-0.158
8,CTCTAAGA,-0.0971
9,GACTCAAA,0.266
10,CCCTCGTC,0.0663
11,CGTCCTGA,-0.0229
12,CTCAAAAC,0.0113
13,CGGGATGA,0.145
14,CAGTTTAG,-0.264
15,CAAACCTC,-0.0936
16,GTGGCTGA,0.175
17,GTAGGGAA,-0.0993
18,GTCTTACA,0.0006
19,ACAGCTTC,-0.194
20,CAAAACCA,0.126
21,GAATCTTA,-0.00777
22,ATAAGTGC,-0.105
23,GATTCACA,0.326
24,AAAACCTG,-0.142
25,GTCTCAAA,-0.154

row,Sequence,PBM E-score
1,GCCGGTAA,0.195
2,CCGGCCTC,-0.105
3,CATCTCGA,-0.0977
4,AACTAACT,-0.0819
5,ATAGTTCC,0.164
6,GCAGAACC,-0.0512
7,CAAATTCG,-0.0604
8,TCAAAAGA,-0.0618
9,ACCTGCGA,0.0234
10,CTGCTCAC,0.0104
11,GAACTGTA,0.0842
12,CTGTCAAC,0.0314
13,GGCATCAA,-0.122
14,CAAATAGG,-0.0194
15,CCATCACG,0.109
16,ACACGACC,0.109
17,GTAGTGCA,0.0873
18,AGACTTGG,-0.119
19,AATCAGCA,0.23
20,ACAACATA,0.0715
21,GACGACCA,-0.0813
22,AATTTGTA,-0.0169
23,TAGCTCGA,0.083
24,CCTTCTGC,-0.0698
25,AATTCGCG,-0.02

row,Sequence,PBM E-score
1,AGGATAAA,-0.0475
2,ACCAACGC,0.043
3,AGGAAACA,0.0101
4,CTGATGGC,0.0804
5,ATTGTTAG,-0.094
6,GTATTCTA,0.0349
7,ACTGTTCT,0.199
8,CATTAACC,0.21
9,ATCAGTCG,0.23
10,CCTACGTC,-0.178
11,ATGAATTA,-0.0774
12,AAAACCAA,-0.0825
13,ATTCACTC,-0.0177
14,CATTCCCG,0.0423
15,ATACTTGG,0.0655
16,GGGGAGTA,0.17
17,AATGGGTG,0.162
18,ATCTATGG,0.00719
19,GTGTCAAA,-0.00029
20,AAAGGCCG,-0.124
21,ACGAGACA,0.127
22,ATTGGCTC,0.0185
23,CGAAGGTC,-0.103
24,ATCGGGGG,-0.149
25,ACGCCCTC,-0.111

row,Sequence,PBM E-score
1,GAATACAA,0.127
2,AGCGAAAT,-0.184
3,GCGAAAGA,-0.209
4,GACAAAAA,-0.183
5,CGTTGCGC,-0.103
6,CAGTGATA,0.00123
7,AATTTAAG,-0.187
8,AATTCCAG,-0.136
9,CATCCTCA,0.126
10,CCATTGGG,-0.18
11,GGCAGTAC,-0.143
12,ATTTCAAG,-0.289
13,AAGAGAGA,-0.233
14,GCCGGTAC,0.0314
15,GTATACAA,0.172
16,GCGCATCC,-0.0491
17,ACATGTCC,-0.13
18,AAAAGCTT,-0.351
19,CAGTACAA,0.133
20,GTACGGGA,-0.129
21,AATCTCAC,-0.0657
22,CGTTAGTC,0.132
23,ATCTCCCG,-0.0912
24,ACTAGGAA,0.0492
25,CCGCCGAC,0.075

row,Sequence,PBM E-score
1,GCAAATGC,-0.279
2,ATCGAATC,0.193
3,AATTAGGT,-0.148
4,CGGACGTA,-0.138
5,AGCGACCA,-0.0305
6,CTCTGAAA,-0.12
7,ATTAAGCC,-0.171
8,AAGATTCT,-0.137
9,GGATGTAC,0.0103
10,GTTCACGA,-0.0674
11,CTCTACAG,-0.0399
12,CAGTTCTA,-0.0933
13,ATGGCTAA,0.142
14,ATAGCTAA,-0.106
15,AAACGCGG,-0.125
16,CTACTTTA,0.0794
17,CTCGTGTC,0.036
18,TGAGTCAA,0.419
19,AGCCAGCA,-0.0844
20,AACGGTAC,0.134
21,AATGATCA,0.0798
22,GCATTCGC,-0.216

# Source: the supplement of paper PMC3334620
